The full ranking holds about 13,000 compounds; the median of “IFI” is about 4, and the highest 2% start at about 17. The list shows a part of the results.
Assay: GSK_TCMDC: Inhibition Frequency Index (IFI). The number of non-kinase HTS assays where a compound showed > 50 % inhibition, expressed as a percentage of the number of such assays in which the compound was tested (-0 is zero)
Assay type: functional

SMILES | IFI
Cc1sc(NC(=O)Cc2cccc(C(F)(F)F)c2)nc1-c1cccc(Cl)c1 | 3.7%
CN1CCN(CC(=O)Nc2cccc(-c3ccc(-c4nc5cc(F)ccc5[nH]4)s3)c2)CC1 | 4.5%
c1ccc(Oc2ccc(Nc3ccnc4cc(-c5csc(CNCCN6CCOCC6)n5)ccc34)cc2)cc1 | 2.24%
COc1ccc(CC(=O)Nc2ccc(Nc3nc(C)cc(N4CCCC4)n3)cc2)cc1 | 15.4%
Cc1ccc2c(c1)NCC21CCN(C[C@@H](O)C2CCN(c3cc(C#N)ccn3)CC2)CC1C (stereo partly specified) | -0%
c1ccc(Oc2ccc(Nc3ccnc4cc(-c5cccc(CNCCN6CCOCC6)c5)ccc34)cc2)cc1 | 5.88%
CN1CCC(N(Cc2ccc(-c3ccc(Cl)cc3)cc2)C(=O)Cn2c(CCc3cccc(F)c3F)cc(=O)c3ccccc32)CC1 | 14.4%
COc1cc(NC(=O)N2CCOC(CCN3CCC(c4ccccc4)CC3)(c3ccc(Cl)c(Cl)c3)C2)cc(OC)c1 (stereo unspecified) | 6.8%
CCc1c(CCNCCCCCCNC(C)(C)Cc2ccc3c(c2CC)OCO3)ccc(OC)c1OC | 6.38%
O=C(CN1CCN(S(=O)(=O)C=Cc2ccccc2)CC1)Nc1cc(C(F)(F)F)ccc1Cl | 0.81%
O=C(Nc1ccc(Cl)cc1)c1ccc(S(=O)(=O)NCC2CCN(CC3CCCCC3)CC2)cc1 | 9.18%
CN1CCCN(Cc2cccc(-c3cccc(NC(=O)c4cccc(C#N)c4)c3)c2)CC1 | 3.81%
CN1CCc2ccc(NC(=O)Nc3ccc(Cl)c(Cl)c3)cc2C1 | 1.72%
CC1(C)C=C(c2ccncc2)c2cc(Cl)ccc2O1 | 2.82%
Cc1cc(=NN=Cc2ccc(Cl)cc2)c2ccccc2[nH]1 | 0.7%
COc1cc(CCCON2C(=N)N=C(N)NC2(C)C)cc(OC)c1OC | 2.17%
O=S(=O)(c1cc2ccccc2s1)N(CCC(O)(C(F)(F)F)C(F)(F)F)Cc1cccc(O)c1 | 1.45%
CCCc1cc(Cc2cnc(N)nc2N)cc2c1OC(C)(C)C2 | 4.96%
Cc1cc(C)c(O)c(-c2cc(C(=O)Nc3ccc(S(=O)(=O)N4CC(C)OC(C)C4)cc3)[nH]n2)c1 (stereo unspecified) | 6.06%

SMILES | IFI
CC[C@H](C)CNC(=O)c1cncc(-c2ccc(CNC3CCCC3)cc2)c1 | 1.61%
COc1ccc(Cn2c(Nc3cccc(C(F)(F)F)c3)nc3cc(C(=O)NC4CC4)cnc32)cc1Cl | 2.24%
O=C(Nc1cccc(-c2nn3ncccc3c2-c2ccnc(Nc3cccc(C(F)(F)F)c3)n2)c1)c1c(F)cccc1F | 4.35%
COc1cccc(C=NN=c2cc(C)[nH]c3ccccc23)c1 | 1.41%
Cc1cc(C)c(NC(=O)NC2CCN(CCCCCNC(=O)/C=C/c3ccc(Cl)c(Cl)c3)C2)c(C)c1 (stereo unspecified) | 2.22%
N#Cc1cccc(C(=O)NC2CCN(c3ccnc(Nc4ccc(F)cc4)n3)C2)c1 (stereo unspecified) | 1.54%
Cc1ccc(C(CC(=O)Nc2nccs2)c2ccc(OC(C)C)cc2)cc1 (stereo unspecified) | 3.39%
C[C@H](Cc1ccc(OCCCCOc2ccc(C[C@@H](C)NC[C@H](O)c3cccc(Cl)c3)cc2)cc1)NC[C@H](O)c1cccc(Cl)c1 | 11.6%
CC(=O)c1ccc(N2C(=O)C3C(Cc4ccc(OC(C)(C)C)cc4)NC4(C(=O)N(Cc5ccc(C(C)(C)C)cc5)c5ccccc54)C3C2=O)cc1 (stereo unspecified) | 0%
FC(F)(F)c1ccc2[nH]c(-c3ccc(-c4cccc(CNCCc5ccncc5)c4)s3)nc2c1 | 8%
Clc1ccc(Sc2cncnc2N2CCOCC2)cc1 | 1.49%
COc1ccc(C(=O)Nc2nonc2-c2ccc(OC)c(OC)c2)cc1Cl | 4.17%
CCOc1cc2ncnc(Nc3ccc(OCc4ccccc4F)c(Cl)c3)c2cc1OCC | -0%
COCCN1CCN(Cc2cccc(-c3ccc(-c4nc5ccccc5[nH]4)cc3)c2)CC1 | 5.88%
COc1ccc2nc(C)cc(Nc3ccc(Oc4ccc(Cl)c5ccccc45)c(Cl)c3)c2c1 | 6.92%
CN(C)c1ccc(CN2CCC(CNC(=O)c3cc(-c4ccccc4Cl)cs3)C2)cc1 (stereo unspecified) | 6.12%
N#Cc1ccc2c(c1)CCN(CCC1CCC(NC(=O)c3cc4ccc(Br)cc4[nH]3)CC1)C2 (stereo unspecified) | 4.41%
CCCCNc1cc(NCCCC)c2c(n1)[nH]c1ccccc12 | 19.4%
COc1cc(NC(=O)c2c(-c3c(Cl)cccc3Cl)noc2C)c(OC)cc1Cl | 1.96%

SMILES | IFI
Cn1cc(Br)c(-c2cccc(Nc3ccnc4cc(-c5nccs5)ccc34)c2)n1 | 6.57%
Cc1cc(NCCc2ccccc2)nc(NC(=N)Nc2cccc(Cl)c2)n1 | 5.26%
Cc1nnsc1C(=O)Nc1ccc(-c2cccc(-c3nc4cc(F)ccc4[nH]3)c2)cc1 | 5.5%
COc1cc(NC(=O)c2sc(-c3ccc(Cl)cc3)cc2NC(=O)c2ccncc2)ccc1OCCN1CCCC1 | 10.7%
C[C@H](NC(=O)c1cc(-c2ccc(C(C)(C)C)cc2)no1)C(=O)O.C[C@H](NC(=O)c1conc1-c1ccc(C(C)(C)C)cc1)C(=O)O | 0%
CCCN(CC1CC1)c1ncc(-c2cccc(CNCCC3CCCN3C)c2)cn1 (stereo unspecified) | 12%
CC[C@H](C)CNC(=O)c1cncc(-c2ccc(CN3CCC(N4CCCC4)CC3)cc2)c1 | 4.69%
c1ccc(C(c2cccs2)N2CCN(Cc3ccc(OCCCN4CCCCC4)cc3)CC2)cc1 (stereo unspecified) | 10.7%
CCCC(=O)Nc1ccc(OCCCCN(Cc2ccccc2C(F)(F)F)c2ccc(C(F)(F)F)c(C#N)c2)cc1 | -0%
Cc1cccc2nc(-c3ccc(-c4cccc(NC(=O)C(C)CN(C)C)c4)s3)[nH]c12 (stereo unspecified) | 2.7%
COc1ccc2nc(C)cc(NC3Cc4ccccc4C3)c2c1 | -0%
Cc1cc(-c2ccc(NC(=O)c3coc4ccc(N5CC(C)N(C)C(C)C5)cc34)cc2C)cc(C)n1 (stereo unspecified) | 3.68%
CNC(=O)c1ccc2nc(C3CC3)n(CC3CCN(S(=O)(=O)c4cccc(Cl)c4)CC3)c2c1 | 0.74%
O=C(Nc1cccc(-c2ccc(-c3nc4cc(C(F)(F)F)ccc4[nH]3)cc2)c1)c1csnn1 | 3.6%
OC(CNCCc1ccccc1)Cn1c2ccc(Cl)cc2c2cc(Cl)ccc21 (stereo unspecified) | 9.09%
CCCOc1ccc(-c2nonc2NC(=O)c2ccccc2OC)cc1OCCC | 2.44%
c1ccc(CCNc2nc(NCC(c3ccccc3)c3ccccc3)c3nc[nH]c3n2)cc1 | 8.09%
Cc1cccc(-c2cccc3c(NC(=O)N4CCc5cc6nccc(N7CCN8CCC[C@H]8C7)c6cc54)cccc23)n1 | 5.59%
